Test results taken from the supplement of paper PMC8728848.
The list shows a part of the results.

What was measured:
Assay in all cases: glycan array binding signal (z-score within array); higher = stronger binding
Settings in all cases: glycan notation: IUPAC condensed, linker removed
[1] = target: GlcNAc(b1-3)Gal(b1-4)GlcNAc(b1-3)Gal(b1-4)GlcNAc(b1-3)Gal(b1-4)GlcNAc(b1-3)Gal(b1-4)GlcNAc(b1-2)[GlcNAc(b1-3)Gal(b1-4)GlcNAc(b1-3)Gal(b1-4)GlcNAc(b1-3)Gal(b1-4)GlcNAc(b1-3)Gal(b1-4)GlcNAc(b1-6)]Man(a1-6)[GlcNAc(b1-3)Gal(b1-4)GlcNAc(b1-3)Gal(b1-4)GlcNAc(b1-3)Gal(b1-4)GlcNAc(b1-3)Gal(b1-4)GlcNAc(b1-2)Man(a1-3)]Man(b1-4)GlcNAc(b1-4)[Fuc(a1-6)]GlcNAc
In short: (§1)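 Glycan array data were curated from 3228 arrays in the Consortium for Functional Glycomics database and kept only where the protein sequence was available. Glycan names were converted to IUPAC-condensed notation, and columns mapping to the same glycan were averaged. The binding signal is a within-array Z-score, averaged across arrays of the same protein sequence at different concentrations or buffers and across linkers. Negative Z-scores can be read as non-binding.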

[2] = target: GlcNAc(b1-3)Gal(b1-4)GlcNAc(b1-3)Gal(b1-4)GlcNAc(b1-3)GalNAc
In short: as §1

[3] = target: GlcNAc(b1-3)Gal(b1-4)GlcNAc(b1-3)GalNAc
In short: as §1

[4] = target: GlcNAc(b1-3)Gal(b1-4)GlcNAc(b1-3)[GlcNAc(b1-3)Gal(b1-4)GlcNAc(b1-3)]GalNAc
In short: as §1

[5] = target: GlcNAc(b1-3)Gal(b1-4)GlcNAc(b1-6)[Gal(b1-3)]GalNAc
In short: as §1

[6] = target: GlcNAc(b1-3)Gal(b1-4)GlcNAc(b1-6)[GlcNAc(b1-3)Gal(b1-3)]GalNAc
In short: as §1

[7] = target: GlcNAc(b1-3)Gal(b1-4)GlcNAc(b1-6)[GlcNAc(b1-3)]Gal(b1-4)GlcNAc
In short: as §1

GlcNAc(b1-3)GalNAc = target: GlcNAc(b1-3)GalNAc
In short: as §1

GlcNAc(b1-3)Man = target: GlcNAc(b1-3)Man
In short: as §1

[8] = target: GlcNAc(b1-3)[GlcNAc(b1-4)][GlcNAc(b1-6)]GlcNAc
In short: as §1

[9] = target: GlcNAc(b1-3)[GlcNAc(b1-6)]Gal(b1-4)GlcNAc
In short: as §1

[10] = target: GlcNAc(b1-3)[GlcNAc(b1-6)]GalNAc
In short: as §1

[11] = target: GlcNAc(b1-4)Gal(b1-4)GlcNAc
In short: as §1

GlcNAc(b1-4)GlcNAc = target: GlcNAc(b1-4)GlcNAc
In short: as §1

[12] = target: GlcNAc(b1-4)GlcNAc(b1-4)GlcNAc
In short: as §1

[13] = target: GlcNAc(b1-4)GlcNAc(b1-4)GlcNAc(b1-4)GlcNAc(b1-4)GlcNAc
In short: as §1

[14] = target: GlcNAc(b1-4)GlcNAc(b1-4)GlcNAc(b1-4)GlcNAc(b1-4)GlcNAc(b1-4)GlcNAc
In short: as §1

[15] = target: GlcNAc(b1-4)[GlcNAc(b1-6)]GalNAc
In short: as §1

[16] = target: GlcNAc(b1-6)Gal(b1-4)GlcNAc
In short: as §1

GlcNAc(b1-6)GalNAc = target: GlcNAc(b1-6)GalNAc
In short: as §1

[17] = target: GlcNAc6S(b1-3)Gal(b1-4)GlcNAc
In short: as §1

Kdn(a2-3)Gal(b1-3)GalNAc = target: Kdn(a2-3)Gal(b1-3)GalNAc
In short: as §1

Kdn(a2-3)Gal(b1-3)GlcNAc = target: Kdn(a2-3)Gal(b1-3)GlcNAc
In short: as §1

Kdn(a2-3)Gal(b1-4)Glc = target: Kdn(a2-3)Gal(b1-4)Glc
In short: as §1

Kdn(a2-3)Gal(b1-4)GlcNAc = target: Kdn(a2-3)Gal(b1-4)GlcNAc
In short: as §1

[18] = target: Kdn(a2-3)Gal(b1-4)[Fuc(a1-3)]GlcNAc
In short: as §1

Kdn(a2-6)Gal(b1-4)GlcNAc = target: Kdn(a2-6)Gal(b1-4)GlcNAc
In short: as §1

[19] = target: Man(a1-2)Man(a1-2)Man(a1-3)Man
In short: as §1

[20] = target: Man(a1-2)Man(a1-2)Man(a1-6)[Man(a1-3)]Man
In short: as §1

Man(a1-2)Man(a1-3)Man = target: Man(a1-2)Man(a1-3)Man
In short: as §1

B1: Cp ZmpB (Clostridium perfringens), Q0TR08 (protein)
chain: MNKRKIAAIILATMITNLSATTIDVLAQELNTKNNSKVEVSHDDESHQARVSKFDLYNSDKLDAYNQEFQVSRSNIKSINNNGGKYNSSTIDKAIDGNLETHWETGKPNDANFTNEVVVTFNEITNIDRIVYSARRDSARGKGFAKEFEIYASLKDEGDDFNLVSSGEYTESTRDLVEIKFNPTDFKRLKFKFKKADQNWASAAEFMFYKEDKLNEKFNGLFTDSSMNKVSEEFNTLEKLNAFENELKDHPIYDLYKEGLNNARAILTETSENPTKATLGQITYNLNDDYNNQYRMPYKNIKAIKNNGRHYAAQNIEKAIDNDVNTYWETGTLNSSSFNNEVEVEFNDLVTLDRIVYGSRQSDLKGFAEEVYIYASRTSKGDTYKLVATGAHEATKGLVEAKFEPTEFKRVKFKFKKSKQNSATLNELMFYKPDEVYSSIPKLFTDGTMSELSEEFNSLEKINAFKEKAKNHPLYNDFNETIELAESLISNPRKEDVLELEMRGDSISEAKKRKVWNFQDWQITGLSARAGDKITVYVDVAEGDPTPTLLYKQSLTQHGGATSFQLKPGKNEITIPEINYESNGIPKDVIQGGDLFFTNYKSDSQKRAPKVRIEGASKYPVFILGKSDENEVMKELEAYVEKIKAEPKTTPNIFAVSSNKSLEFVQATYALDWYKKNNKTPKYTAEQWDQYIADAMGFWGFDNSKDVNSDFNFRIMPMVKNLSGGAFMNAGNGVIGIRPGNQDAILAANKGWGVAHELGHNFDTGGRTIVEVTNNMMPLFFESKYKTKTRITDQNIWENNTYPKVGLDDYSNNELYNKADSTHLAQLAPLWQLYLYDNTFYGKFERQFRERDFGNKNREDIYKSWVVAASDAMELDLTEFFARHGIRVDDKVKEDLAKYPKPDKKIYYLNDLAMNYKGDGFTENAKVSVSTSGSNGNIKLSFSVDDENKDNILGYEIRRDGKYVGFTSNDSFVDTKSNLDEDGVYVVTPYDRKLNTLNPIEVNALQPTLSVNPVITLALGEEFNEEEYIVAKDIKGNSLSESVKVKSSNVNTSKVGEYEVLYSLEDSKGNEYTKTSKVNVVSRKEYMSDLTPKQSSNGWGTVRKDKSISGGVIGLTRDGDFVDYNKGLGLHSNAEYVYDLEGKDYDYFESYVGVDKAMSSRPASSVIFKVLVDGEEKFNSGVMRSTTPQKYVKVDVKNAKELKLIVNDAGDGDSSDHASFGDAKLATLSSKPIIKGENLAYSMDEKVDLMKGITATDIEDGNITSKVQIKSSDFVEGKSGIFTVVYSVTDSDGLTSECSRTIAVTDKETQLSDLNWKSATIGSGSVRKDRAVSGNQIRLLNEDNSVETFAKGIGTHSYSEIVYNSEGYDIFDTWVGIDRHVADKKVSSVKFKVYVDGELKAETDVMRIDTPKKRLVVDVRNSKEIKLVVDVADNGNNWDHADWADAKFRNLAEYDASELNKAIEEAKKLDLNNYTEESSEALKNAISKGEEALLSKDKETINSALEELNKEMNSLVKVDLNAVINIPDKYLLKSIQNQLNKTGDITLGDMYSLTTLTLSGVEDLTGLENAKNLETLNMDYNEVKDLRPLSKLKKLNTLNAQEQFIAAGELKPSNGKVIGDSKVYNREGKNVAKTIRVVDKNGNTILEQDAKDEFTINTKDLSSGLYGVHVLFEDEGFSGVMFYLFNV
- glycan array binding signal (z-score) [1]: 0.917
- glycan array binding signal (z-score) [2]: -0.106
- glycan array binding signal (z-score) [3]: -0.04
- glycan array binding signal (z-score) [4]: -0.387
- glycan array binding signal (z-score) [5]: -0.338
- glycan array binding signal (z-score) [6]: -0.206
- glycan array binding signal (z-score) [7]: 0.448
- glycan array binding signal (z-score) (GlcNAc(b1-3)GalNAc): 0.23
- glycan array binding signal (z-score) (GlcNAc(b1-3)Man): 0.057
- glycan array binding signal (z-score) [8]: -0.302
- glycan array binding signal (z-score) [9]: -0.215
- glycan array binding signal (z-score) [10]: -0.207
- glycan array binding signal (z-score) [11]: -0.189
- glycan array binding signal (z-score) (GlcNAc(b1-4)GlcNAc): 0.082
- glycan array binding signal (z-score) [12]: -0.137
- glycan array binding signal (z-score) [13]: -0.381
- glycan array binding signal (z-score) [14]: -0.483
- glycan array binding signal (z-score) [15]: -0.328
- glycan array binding signal (z-score) [16]: -0.356
- glycan array binding signal (z-score) (GlcNAc(b1-6)GalNAc): -0.177
- glycan array binding signal (z-score) [17]: -0.26
- glycan array binding signal (z-score) (Kdn(a2-3)Gal(b1-3)GalNAc): 0.269
- glycan array binding signal (z-score) (Kdn(a2-3)Gal(b1-3)GlcNAc): 0.081
- glycan array binding signal (z-score) (Kdn(a2-3)Gal(b1-4)Glc): -0.245
- glycan array binding signal (z-score) (Kdn(a2-3)Gal(b1-4)GlcNAc): -0.16
- glycan array binding signal (z-score) [18]: -0.322
- glycan array binding signal (z-score) (Kdn(a2-6)Gal(b1-4)GlcNAc): 0.166
- glycan array binding signal (z-score) [19]: -0.029
- glycan array binding signal (z-score) [20]: 0.001
- glycan array binding signal (z-score) (Man(a1-2)Man(a1-3)Man): -0.177
